Source: the supplement of paper PMC4967469
Lines with a small IC50 respond at low doses; where the fit passes the top or lowest dose, that dose stands as a limit. AUC is the area under the same curve over the 256-fold range up to the top dose, as a fraction; the more sensitive the line, the further below 1. For some assays here: A top dose marked as inferred is not printed in the source and was worked back from the curve model. For some assays here: Drugs with an entry number were screened twice under separate entries, and the two screens often disagree.

Tests used:
Experiment in all cases: Viability of human cancer cell lines after 72 h of drug (GDSC screen)
UNC0638 = compound: COc1cc2c(NC3CCN(C(C)C)CC3)nc(C3CCCCC3)nc2cc1OCCCN1CCCC1 [UNC0638]
Protocol: (§1)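 Human cancer cell lines in 384-well plates, medium with 10% serum, drug for 72 h over a 256-fold dose range (nine 2-fold or five 4-fold steps up to the top dose). Adherent lines were fixed and stained with the nucleic acid dye Syto60, suspension lines read with resazurin; signal relative to control wells, capped at 0 and 100%. One two-parameter sigmoid per drug and line, fitted in a mixed model over all curves with the slope shared within a line.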

GSK690693 = compound: CCn1c(-c2nonc2N)nc2c(C#CC(C)(C)O)ncc(OC[C@H]3CCCNC3)c21 [GSK690693]; settings: top dose 10.24 µM; top dose inferred
Protocol: as §1

Tretinoin = compound: CC1=C(/C=C/C(C)=C/C=C/C(C)=C/C(=O)O)C(C)(C)CCC1 [Tretinoin]; settings: top dose 10 µM; top dose inferred
Protocol: as §1

PI-103 = compound: Oc1cccc(-c2nc(N3CCOCC3)c3oc4ncccc4c3n2)c1 [PI-103]; settings: top dose 10.24 µM
Protocol: as §1

BX-795 = compound: O=C(NCCCNc1nc(Nc2cccc(NC(=O)N3CCCC3)c2)ncc1I)c1cccs1 [BX-795]; settings: top dose 5 µM; top dose inferred
Protocol: as §1

SB-505124 = compound: Cc1cccc(-c2[nH]c(C(C)(C)C)nc2-c2ccc3c(c2)OCO3)n1 [SB-505124]; settings: top dose 10 µM; top dose inferred
Protocol: as §1

[1] = top dose 20 µM, screen: GDSC drug entry 1236, top dose inferred
[2] = top dose 40 µM, screen: GDSC drug entry 245

Row | Cell Line | AUC (UNC0638; [1]) | IC50 (UNC0638; [1]) | AUC (UNC0638; [2]) | IC50 (UNC0638; [2]) | AUC (GSK690693) | IC50 (GSK690693) | AUC (Tretinoin) | IC50 (Tretinoin) | AUC (PI-103) | IC50 (PI-103) | AUC (BX-795) | IC50 (BX-795) | AUC (SB-505124) | IC50 (SB-505124)
1 | OE33 (oesophagus, adherent) | 0.808 | 12.8 µM | 0.652 | 7.18 µM | 0.975 | > 10.2 µM | 0.971 | > 10 µM | 0.787 | 5.39 µM | 0.936 | > 5 µM | 0.982 | > 10 µM
2 | OSC-20 (head and neck, adherent) | 0.867 | > 20 µM | 0.763 | 17 µM | 0.928 | > 10.2 µM | 0.915 | > 10 µM | 0.683 | 2.31 µM | 0.78 | 2.46 µM | 0.967 | > 10 µM
3 | OV-7 (ovary, adherent) | 0.878 | > 20 µM | 0.817 | 39.3 µM | 0.94 | > 10.2 µM | 0.83 | > 10 µM | 0.491 | 0.598 µM | 0.72 | 1.85 µM | 0.93 | > 10 µM
4 | OV-17R (ovary, adherent) | 0.943 | > 20 µM | 0.877 | > 40 µM | 0.937 | > 10.2 µM | 0.981 | > 10 µM | 0.55 | 0.924 µM | 0.918 | > 5 µM | 0.978 | > 10 µM
5 | OV-56 (ovary, adherent) | 0.924 | > 20 µM | 0.879 | 38.2 µM | 0.963 | > 10.2 µM | 0.982 | > 10 µM | 0.596 | 1.16 µM | 0.866 | 4.16 µM | 0.988 | > 10 µM
6 | OV-90 (ovary, adherent) | 0.886 | > 20 µM | 0.858 | > 40 µM | 0.973 | > 10.2 µM | 0.943 | > 10 µM | 0.981 | > 10.2 µM | 0.851 | > 5 µM | 0.942 | > 10 µM
7 | OVCA420 (ovary, adherent) | 0.952 | > 20 µM | 0.93 | > 40 µM | 0.979 | > 10.2 µM | 0.87 | > 10 µM | 0.981 | > 10.2 µM | 0.961 | > 5 µM | 0.974 | > 10 µM
8 | OVCA433 (ovary, adherent) | 0.83 | 14.5 µM | 0.77 | 17 µM | 0.974 | > 10.2 µM | 0.985 | > 10 µM | 0.734 | 3.23 µM | 0.812 | 3.06 µM | 0.981 | > 10 µM
9 | OVCAR-5 (ovary, adherent) | 0.853 | > 20 µM | 0.814 | 27.5 µM | 0.943 | > 10.2 µM | 0.982 | > 10 µM | 0.85 | > 10.2 µM | 0.783 | 2.56 µM | 0.957 | > 10 µM
10 | OVISE (ovary, adherent) | 0.871 | > 20 µM | 0.63 | 6.41 µM | 0.609 | 1.41 µM | 0.945 | > 10 µM | 0.304 | 0.149 µM | 0.909 | > 5 µM | 0.978 | > 10 µM
11 | OVK-18 (ovary, adherent) | 0.984 | > 20 µM | 0.872 | > 40 µM | 0.932 | > 10.2 µM | 0.978 | > 10 µM | 0.906 | > 10.2 µM | 0.877 | > 5 µM | 0.967 | > 10 µM
12 | OVKATE (ovary, adherent) | 0.944 | > 20 µM | 0.746 | 21.1 µM | 0.969 | > 10.2 µM | 0.979 | > 10 µM | 0.791 | 8.76 µM | 0.978 | > 5 µM | 0.977 | > 10 µM
13 | OVMIU (ovary, adherent) | 0.887 | > 20 µM | 0.692 | 9.95 µM | 0.61 | 1.38 µM | 0.971 | > 10 µM | 0.226 | 0.081 µM | 0.968 | > 5 µM | 0.978 | > 10 µM
14 | OVTOKO (ovary, adherent) | 0.758 | 8.76 µM | 0.752 | 16.6 µM | 0.961 | > 10.2 µM | 0.946 | > 10 µM | 0.646 | 1.82 µM | 0.744 | 1.93 µM | 0.94 | > 10 µM
15 | P12-ICHIKAWA (T-cell lymphoblastic leukaemia, suspension) | 0.851 | 10.3 µM | 0.6 | 4.39 µM | 0.93 | > 10.2 µM | 0.963 | > 10 µM | 0.639 | 1.41 µM | 0.89 | 3.49 µM | 0.986 | > 10 µM
16 | PA-TU-8902 (pancreas, adherent) | 0.979 | > 20 µM | 0.844 | 36.1 µM | 0.973 | > 10.2 µM | 0.981 | > 10 µM | 0.381 | 0.285 µM | 0.881 | > 5 µM | 0.933 | > 10 µM
17 | PANC-02-03 (pancreas, adherent) | 0.808 | 12.9 µM | 0.659 | 7.58 µM | 0.973 | > 10.2 µM | 0.956 | > 10 µM | 0.983 | > 10.2 µM | 0.891 | > 5 µM | 0.971 | > 10 µM
18 | PANC-03-27 (pancreas, adherent) | 0.812 | 9.9 µM | 0.658 | 6.66 µM | 0.987 | > 10.2 µM | 0.989 | > 10 µM | 0.852 | 7.12 µM | 0.877 | 4.45 µM | 0.987 | > 10 µM
19 | PANC-04-03 (pancreas, adherent) | 0.81 | 20 µM | 0.908 | > 40 µM | 0.976 | > 10.2 µM | 0.976 | > 10 µM | 0.706 | 3.53 µM | 0.968 | > 5 µM | 0.974 | > 10 µM
